Results reported in the supplement of paper PMC4967469.
By IC50 is meant the dose at which the fit gives 50% viability; fits outside the tested doses are given as limits. For AUC the same curve is integrated over the 256-fold range of doses and scaled to a fraction; the more sensitive the line, the further below 1. For some assays here: Where the top dose is marked as inferred, it comes from the curve model; the source does not state it. For some assays here: Drugs with an entry number were screened twice under separate entries, and the two screens often disagree.

Key:
Test in all cases: Viability of human cancer cell lines after 72 h of drug (GDSC screen)
[1] = compound: O=C(/C=C/c1ccc(CN(CCO)CCc2c[nH]c3ccccc23)cc1)NO [LAQ824]; settings: top dose 1.024 µM; top dose inferred
Experimental: (§1)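 Human cancer cell lines in 384-well plates, medium with 10% serum, drug for 72 h over a 256-fold dose range (nine 2-fold or five 4-fold steps up to the top dose). Adherent lines were fixed and stained with the nucleic acid dye Syto60, suspension lines read with resazurin; signal relative to control wells, capped at 0 and 100%. One two-parameter sigmoid per drug and line, fitted in a mixed model over all curves with the slope shared within a line.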

[2] = compound: O=S(=O)(O)c1ccc2cc(N=Nc3cc(S(=O)(=O)O)c4cccnc4c3O)ccc2c1 [NSC-87877]; settings: top dose 16 µM; top dose inferred
Experimental: as §1

[3] = compound: CCCC(=O)OCc1ccc(OC(=O)/C=C(C)/C=C/C=C(C)/C=C/C2=C(C)CCCC2(C)C)cc1 [VNLG/124]; settings: top dose 5.12 µM; top dose inferred
Experimental: as §1

[4] = compound: Cc1c(N)nc([C@H](CC(N)=O)NC[C@H](N)C(N)=O)nc1C(=O)N[C@H](C(=O)N[C@H](C)[C@@H](O)[C@H](C)C(=O)N[C@H](C(=O)NCCc1nc(-c2nc(C(=O)NCCC[S+](C)C)cs2)cs1)[C@@H](C)O)[C@@H](OC1OC(CO)C(O)C(O)C1OC1OC(CO)C(O)C(OC(N)=O)C1O)c1cnc[nH]1 [Bleomycin]
Experimental: as §1

[5] = compound: CC/C(=C(\c1ccccc1)c1ccc(OCCN(C)C)cc1)c1ccccc1 [Tamoxifen]; settings: top dose 5 µM
Experimental: as §1

[6] = compound: O=C(Nc1cccc(Nc2ncc(Br)c(NCCc3cnc[nH]3)n2)c1)N1CCCC1 [BX-912]; settings: top dose 10.24 µM; top dose inferred
Experimental: as §1

[7] = compound: O=C(Nc1ccc(OC(F)(F)F)cc1)c1sccc1NCc1ccnc2ccccc12 [OSI-930]; settings: top dose 10.24 µM
Experimental: as §1

[8] = compound: CN(NC(=O)CC(=O)NN(C)C(=S)c1ccccc1)C(=S)c1ccccc1 [Elesclomol]; settings: top dose 0.2 µM; top dose inferred
Experimental: as §1

[9] = compound: Cc1ccc(NC(=O)c2ccc(CN3CCN(C)CC3)cc2)cc1Nc1nc(-c2cccnc2)cs1 [Masitinib]; settings: top dose 20 µM
Experimental: as §1

[10] = top dose 50 µM, screen: GDSC drug entry 1378, top dose inferred
[11] = top dose 64 µM, screen: GDSC drug entry 190

Cell Line	AUC [1]	IC50 [1]	AUC [2]	IC50 [2]	AUC [3]	IC50 [3]	AUC [4, 10]	IC50 [4, 10]	AUC [4, 11]	IC50 [4, 11]	AUC [5]	IC50 [5]	AUC [6]	IC50 [6]	AUC [7]	IC50 [7]	AUC [8]	IC50 [8]	AUC [9]	IC50 [9]
KMOE-2 (acute myeloid leukaemia, suspension)	0.435	0.0434 µM	0.984	> 16 µM	0.99	> 5.12 µM	0.936	> 50 µM	0.872	49.8 µM	0.98	> 5 µM	0.828	5.43 µM	0.93	> 10.2 µM	0.686	0.0388 µM	0.871	15.5 µM
KMRC-1 (kidney, adherent)	0.79	0.488 µM	0.974	> 16 µM	0.985	> 5.12 µM	0.761	18.8 µM	0.853	55 µM	0.952	> 5 µM	0.978	> 10.2 µM	0.972	> 10.2 µM	0.766	0.078 µM	0.981	> 20 µM
KNS-81-FD (glioma, adherent)	0.763	0.501 µM	0.981	> 16 µM	0.977	> 5.12 µM	0.759	23.6 µM	0.87	> 64 µM	0.964	> 5 µM	0.923	> 10.2 µM	0.954	> 10.2 µM	0.506	0.013 µM	0.866	> 20 µM
KON (head and neck, adherent)	0.395	0.0333 µM	0.81	8.2 µM	0.98	> 5.12 µM	0.522	3.59 µM	0.109	< 0.25 µM	0.928	> 5 µM	0.966	> 10.2 µM	0.981	> 10.2 µM	0.534	0.0155 µM	0.977	> 20 µM
KP-2 (pancreas, adherent)	0.369	0.027 µM	0.986	> 16 µM	0.963	> 5.12 µM	0.869	> 50 µM	0.851	55 µM	0.981	> 5 µM	0.873	> 10.2 µM	0.941	> 10.2 µM	0.542	0.0164 µM	0.909	> 20 µM
KP-3 (pancreas, adherent)	0.5	0.0639 µM	0.984	> 16 µM	0.97	> 5.12 µM	0.827	38.6 µM	0.699	16.3 µM	0.979	> 5 µM	0.965	> 10.2 µM	0.966	> 10.2 µM	0.656	0.037 µM	0.915	> 20 µM
KS-1 (glioma, adherent)	0.425	0.0379 µM	0.976	> 16 µM	0.918	> 5.12 µM	0.454	2.26 µM	0.105	< 0.25 µM	0.941	> 5 µM	0.79	5.83 µM	0.975	> 10.2 µM	0.533	0.0157 µM	0.864	> 20 µM
KU812 (chronic myeloid leukaemia, suspension)	0.305	0.0192 µM	0.894	> 16 µM	0.988	> 5.12 µM	0.874	41.4 µM	0.695	13.3 µM	0.978	> 5 µM	0.599	1.17 µM	0.835	5.92 µM	0.868	0.156 µM	0.803	8.91 µM
KY821 (leukaemia, suspension)	0.585	0.106 µM	0.986	> 16 µM	0.988	> 5.12 µM	0.986	> 50 µM	0.934	> 64 µM	0.988	> 5 µM	0.949	> 10.2 µM	0.962	> 10.2 µM	0.991	> 0.2 µM	0.904	> 20 µM
KYM-1 (rhabdomyosarcoma, adherent)	0.514	0.0696 µM	0.984	> 16 µM	0.99	> 5.12 µM	0.268	0.767 µM	0.331	1.46 µM	0.907	> 5 µM	0.985	> 10.2 µM	0.977	> 10.2 µM	0.43	0.00828 µM	0.918	> 20 µM
KYSE-70 (oesophagus, adherent)	0.428	0.04 µM	0.958	> 16 µM	0.985	> 5.12 µM	0.597	5.93 µM	0.378	1.78 µM	0.682	1.06 µM	0.968	> 10.2 µM	0.976	> 10.2 µM	0.739	0.0646 µM	0.945	> 20 µM
KYSE-510 (oesophagus, adherent)	0.37	0.0299 µM	0.892	13.3 µM	0.99	> 5.12 µM	0.174	0.412 µM	0.377	1.95 µM	0.992	> 5 µM	0.978	> 10.2 µM	0.992	> 10.2 µM	0.839	0.105 µM	0.972	> 20 µM
KYSE-520 (oesophagus, adherent)	0.612	0.145 µM	0.98	> 16 µM	0.974	> 5.12 µM	0.538	4.1 µM	0.546	5.56 µM	0.977	> 5 µM	0.918	> 10.2 µM	0.981	> 10.2 µM	0.79	0.125 µM	0.916	> 20 µM
L-363 (myeloma, suspension)	0.3	0.0192 µM	0.989	> 16 µM	0.984	> 5.12 µM	0.963	> 50 µM	0.903	> 64 µM	0.976	> 5 µM	0.873	7.62 µM	0.867	7.25 µM	0.445	0.00906 µM	0.817	9.29 µM
L-540 (Hodgkin lymphoma, suspension)	0.455	0.0489 µM	0.99	> 16 µM	0.985	> 5.12 µM	0.551	4.24 µM	0.759	20.2 µM	0.983	> 5 µM	0.934	> 10.2 µM	0.951	> 10.2 µM	0.621	0.0259 µM	0.885	17.7 µM
L-1236 (Hodgkin lymphoma, suspension)	0.387	0.033 µM	0.985	> 16 µM	0.982	> 5.12 µM	0.753	14.4 µM	0.454	3.05 µM	0.979	> 5 µM	0.964	> 10.2 µM	0.989	> 10.2 µM	0.983	> 0.2 µM	0.957	> 20 µM
LAMA-84 (chronic myeloid leukaemia, suspension)	0.491	0.0606 µM	0.978	> 16 µM	0.9	> 5.12 µM	0.95	> 50 µM	0.499	3.96 µM	0.962	> 5 µM	0.84	7.2 µM	0.852	8.11 µM	0.741	0.0618 µM	0.196	0.153 µM
LC4-1 (lymphoblastic leukaemia, suspension)	0.243	0.0106 µM	0.982	> 16 µM	0.882	> 5.12 µM	0.824	34.1 µM	0.676	13.1 µM	0.972	> 5 µM	0.664	1.92 µM	0.94	> 10.2 µM	0.872	> 0.2 µM	0.803	11.2 µM
LCLC-103H (large cell lung carcinoma, adherent)	0.272	0.0155 µM	0.972	> 16 µM	0.982	> 5.12 µM	0.986	> 50 µM	0.156	0.404 µM	0.99	> 5 µM	0.874	8.35 µM	0.988	> 10.2 µM	0.818	0.0992 µM	0.893	> 20 µM
LNZTA3WT4 (glioma, adherent)	0.761	0.356 µM	0.978	> 16 µM	0.978	> 5.12 µM	0.713	12.3 µM	0.794	28.8 µM	0.951	> 5 µM	0.967	> 10.2 µM	0.966	> 10.2 µM	0.56	0.0182 µM	0.974	> 20 µM
LOUCY (T-cell lymphoblastic leukaemia, suspension)	0.189	0.00962 µM	0.992	> 16 µM	0.739	1.31 µM	0.901	43.5 µM	0.043	< 0.25 µM	0.975	> 5 µM	0.174	0.0862 µM	0.976	> 10.2 µM	0.665	0.0326 µM	0.893	16.1 µM
LU-134-A (small cell lung carcinoma, suspension)	0.436	0.0423 µM	0.987	> 16 µM	0.987	> 5.12 µM	0.935	> 50 µM	0.854	55.4 µM	0.982	> 5 µM	0.688	2.23 µM	0.968	> 10.2 µM	0.921	> 0.2 µM	0.937	> 20 µM
LU-135 (small cell lung carcinoma, suspension)	0.411	0.0383 µM	0.986	> 16 µM	0.967	> 5.12 µM	0.952	> 50 µM	0.602	7.25 µM	0.991	> 5 µM	0.907	9.89 µM	0.992	> 10.2 µM	0.325	0.00448 µM	0.843	10.8 µM
LU-139 (small cell lung carcinoma, suspension)	0.495	0.0617 µM	0.972	> 16 µM	0.979	> 5.12 µM	0.904	> 50 µM	0.917	> 64 µM	0.98	> 5 µM	0.886	> 10.2 µM	0.929	> 10.2 µM	0.756	0.0863 µM	0.753	8.4 µM
LU-165 (small cell lung carcinoma, suspension)	0.483	0.0572 µM	0.988	> 16 µM	0.988	> 5.12 µM	0.971	> 50 µM	0.833	48.5 µM	0.981	> 5 µM	0.937	> 10.2 µM	0.983	> 10.2 µM	0.988	> 0.2 µM	0.94	> 20 µM
M14 (melanoma, adherent)	0.733	0.308 µM	0.966	> 16 µM	0.982	> 5.12 µM	0.642	7.88 µM	–	–	0.985	> 5 µM	0.963	> 10.2 µM	0.985	> 10.2 µM	0.828	0.133 µM	0.903	> 20 µM
